Experimental data: PubChem BioAssay AID2546 (National Center for Advancing Translational Sciences (NCATS), 2010)
About 11,000 (3.5%) of roughly 310,000 compounds were called active. The inconclusive results got no clear call from the source; some entries with a clear call stand among them for comparison. The call rests on the fitted dose curve; in most records, active means well fitted inhibition curve with a large enough effect; inconclusive means small, poorly fitted or top-dose-only effect, or effect the other way; inactive means flat fitted curve, though single readings scatter. No potency is given beside an inconclusive call; the fits are too rough.

Test: VP16 counterscreen qHTS for inhibitors of ROR gamma transcriptional activity;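 further: Gal4-VP16 expression switched on by copper sulfate through the metallothionein promoter; nearly all actives have a fitted effect of over 50% in size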
Conditions: Drosophila S2 Gal4-VP16 UAS-luciferase, luminescence, 20 h; series mostly up to 53.6 µM
Potency means the concentration at half of the fitted maximal effect; tags describe the fitted curve by direction and shape.

Row | Structure (SMILES) | Potency
1 | Cc1cccc(C#N)c1NC1=CC(=O)CC(C)(C)C1 | inconclusive [inhibitor, full curve]
2 | COCCn1c(SCC(=O)Nc2ccccc2F)nc2c(c1=O)SCC2 | inconclusive [inhibitor, single point]
3 | O=c1c2ccccc2cnn1-c1nc2ccccc2[nH]1 | active: 1.12 µM
4 | NCC12CC3CC(C1)CC(c1ccc(Cl)cc1)(C3)C2 | inconclusive [inhibitor, single point]
5 | O=C(c1ccc(S(=O)(=O)c2ccc(F)cc2)c([N+](=O)[O-])c1)N1CCCCCC1 | inconclusive [inhibitor, single point]
6 | Clc1nc2sccn2c1/C=N/n1cnc2ccccc21 | inconclusive [inhibitor, single point]
7 | COc1ccc(/C=C2\SC(=Nc3ccccc3OC)NC2=O)cc1 | inconclusive [inhibitor, single point]
8 | O=C(Nc1ccc(OC(F)(F)F)cc1)N1CCN(c2ccnc3cc(Cl)ccc23)CC1 | active: 28.2 µM
9 | CCc1ccccc1NC(=O)CCNC(=O)Cn1ccc2ccccc2c1=O | inactive
10 | CCNc1nc(NC(C)C)nc(OCCNS(=O)(=O)c2cc(C)ccc2C)n1 | inactive
11 | O=C(Cc1cccc2ccccc12)NCCC1=CCCCC1 | inactive
12 | COC(=O)c1sccc1NC(=S)Nc1cc(OC)ccc1OC | inconclusive [inhibitor, single point]
13 | COc1ccc(/C(N)=N/OC(=O)Cc2ccc(OC)c(OC)c2)cc1 | inconclusive [inhibitor, single point]
14 | Cc1ccc(/C(N)=N/OC(=O)c2ccc(C)cc2Cl)cc1 | active: 10 µM
15 | COC(=O)CCC(=O)NC(=S)Nc1cc(Cl)ccc1Cl | inconclusive [inhibitor, single point]
16 | COc1ccc(NCc2ccc([N+](=O)[O-])s2)cc1 | inconclusive [inhibitor, single point]
17 | O=C(CCN1C(=O)/C(=C\c2cccc(Br)c2)SC1=S)NCCCN1CCOCC1 | inactive
18 | CCC(C)NC(=O)Cn1ccc2cc(S(=O)(=O)N3CCCCCC3)ccc21 (centres undefined) | inactive
19 | CC(C)Cn1c(N)c(C(=O)NCCN2CCOCC2)c2nc3ccccc3nc21 | inactive
20 | COc1cccc(OCc2nnc(SCC(=O)NCc3ccco3)n2C)c1 | inactive
21 | Cc1ccc(OCCNc2ccc(C(F)(F)F)cc2[N+](=O)[O-])cc1 | inconclusive [activator, single point]
22 | O=C(NC1CCCCC1)C(c1ccncc1)N(C(=O)c1csnn1)c1ccccc1 (centres undefined) | inactive
23 | Cc1c(NC(=O)c2ccc(-c3ccccc3)cc2)cccc1C(=O)O | inconclusive [inhibitor, partial curve]
24 | C#CCOCCOCCOCCNc1nc(N2CCN(C(=O)C(Cc3cc4ccccc4[nH]3)n3cc(C(N)Cc4ccc(O)cc4)nn3)CC2)nc(N2CCN(C(=O)C(Cc3cc4ccccc4[nH]3)n3cc(C(N)Cc4ccc(O)cc4)nn3)CC2)n1 (centres undefined) | inconclusive [inhibitor, single point]
25 | COc1cc(C(=O)Oc2cccc(Nc3ncnc4ccccc34)c2)cc(OC)c1OC | inconclusive [inhibitor, single point]

Row | Structure (SMILES) | Potency
26 | Cc1cc(C(F)(F)F)n(-c2ccc(N)cc2)n1 | inactive
27 | CC(C)COC(=O)N1CCCC1C(=O)O (centres undefined) | inactive
28 | CCCCCC(=O)Nc1nnc(CCc2ccccc2)s1 | inconclusive [inhibitor, single point]
29 | CNC(=S)N/N=C(\C)c1ccccc1 | active: 15.8 µM
30 | COc1ccc(-c2nnn(Cc3ccccc3F)n2)cc1 | inconclusive [activator, single point]
31 | Cc1ccc2sc(-c3ccc(NC(=O)c4cc(-n5cnnc5)ccc4Cl)cc3)nc2c1 | inconclusive [inhibitor, single point]
32 | O=C(CN(Cc1ccc(F)cc1)C(=O)CCC(=O)Nc1nccs1)NCc1ccc(F)cc1 | inactive
33 | COc1cccc(Nc2nc(CC(C)=O)ns2)c1 | inactive
34 | COc1ccc(C2c3ccc4ccccc4c3Oc3ncn(CCO)c(=N)c32)cc1OC (centres undefined) | inactive
35 | N#C/C(N)=C(/C#N)N=Cc1cccc(Cl)c1 | inactive
36 | Cc1nn(Cc2ccccc2)c(C)c1/C=N/NC(=O)CNc1cccc(C(F)(F)F)c1 | inconclusive [inhibitor, partial curve]
37 | O=c1c2ccccc2nc(/C=C/c2ccc(Br)cc2)n1CCCO | inactive
38 | Cc1cc(C)c(C)c(S(=O)(=O)NCc2ccc(C(=O)N3CCN(C)CC3)cc2)c1C | inconclusive [inhibitor, single point]
39 | O=C(NCC1OCCc2ccccc21)c1ccc(NC(=O)c2ccccc2Cl)cc1 (centres undefined) | inconclusive [inhibitor, single point]
40 | Cc1cc(Cl)ccc1NC(=S)NCc1ccccc1Cl | active: 3.98 µM
41 | Cc1cccc(NC(=O)C2CCCN(C(=O)NC3CCCCC3)C2)c1C (centres undefined) | inactive
42 | O=C(N1CCCCC1)C1(S(=O)(=O)c2ccccc2)CC=CC1 | inconclusive [inhibitor, single point]
43 | CCCS(=O)(=O)N1CCN=C1SCc1cccnc1 | inactive
44 | O=C(Nc1ccc(Cl)c(Cl)c1)Nc1nnc(CC2=CCCCC2)s1 | active: 12.6 µM
45 | Cn1cccc1C(=O)OCc1ccc(C(C)(C)C)cc1 | inconclusive [activator, full curve, poor fit]
46 | CCCN(C(=O)c1ccc2c(SCC(=O)O)c3c(nc2c1)CCC3)c1cccc(C)c1 | inactive
47 | Cc1cc(C)nc(N/N=C/c2ccccc2OCc2ccccc2)n1 | inconclusive [inhibitor, single point]
48 | Cc1nc2c([N+](=O)[O-])c(C)c(C)cc2[nH]1 | inconclusive [inhibitor, single point]
49 | O=C(NCCCN1CCOCC1)c1ccc(/C=C2\Oc3ccccc3N(Cc3ccccc3F)C2=O)cc1 | inconclusive [inhibitor, single point]
